Laboratory results as given in the supplement of paper PMC11417369.
± gives the standard deviation of the averaged measurements. Some of the results follow.

test system: PfAP2-G AP2 domain (GST-tagged); experiment: gcPBM binding intensity (ln(normalized median fluorescence intensity)); higher = stronger DNA binding
Summary of the method: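 Each value is the highest Masliner-normalised natural-log median intensity across replicate spots of either orientation of a probe. The probes were primer-extended double-stranded 36-bp intergenic genomic sequences on an Agilent 4 × 180k array, alongside negative controls, exposed for 1 h to GST-tagged P. falciparum DNA-binding domains expressed in E. coli. Bound protein was picked up with Alexa488 anti-GST antibody and scanned at 488 nm.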

| Sequence | gcPBM binding intensity (ln) |
| --- | --- |
| AAAAAAGAATTGTGCACACACAAAAAATGTTCATAA [CACACA_site1103] | 10.5 ± 0.45 |
| TCGATGTTGGTAGGATGTACGGTACCGGTAGTATTT [XGTACX_site4214] | 11.1 ± 0.71 |
| ATTTTATAAAGGAAGTGTACTAATAAATTCAAATTA [XGTACX_site3922] | 11.2 ± 0.72 |
| ATTATAAAAATATCGTGTACATATTTTTTAAAATAA [XGTACX_site5072] | 11.3 ± 0.83 |
| AAAAAAAAAAAAAAAAGTACACATCATTTTATGAAA [XGTACX_site1402] | 11.7 ± 0.76 |
| ATTATTTCAATTTTTTTTGTTTTTAAAAAAAAAAAT [CACACA_negctrl_site1387] | 10 ± 0.2 |
| AAAATAAATAAATACACACACACGAATATTTATATA [CACACA_site6892] | 9.96 ± 0.057 |
| GAAAACAAAATGGTAACACACAAATGTAAATAGTAT [CACACA_site2113] | 10.14 ± 0.064 |
| AATTTCTTATTTTGTACACACAATAAATATTCACAT [CACACA_site1612] | 11.2 ± 0.73 |
| AAAAAAAAAAAAAAAAGTACTCTATAAGTAACATTT [XGTACX_site6973] | 11.4 ± 0.91 |
| ATTTTTTTGTTATTGTTGAAAAGATGGTTCTTTTTT [CACACA_negctrl_site1346] | 10 ± 0.099 |
| TAGTAGTTATCATTAACATGCAATAATATTATTTAA [TGCATGCA_site178] | 9.635 ± 0.035 |
| AAGTTAGGATAGATCCAATAATTTTTAGTTTCTCTT [GTGCAC_negctrl_site272] | 9.6 ± 0.39 |
| ATGAACATATTTTTTTGTACTTATGAAAATATGTTA [XGTACX_site5996] | 11.1 ± 0.64 |
| ATCATATTTATGTTGGTGCATTATACATAAAGTTTA [GTGCAC_site9574] | 10.1 ± 0.29 |
| ATATATATATATATATGTACATAATTAATAGCATAT [XGTACX_site1428] | 11.2 ± 0.65 |
| GAAAAAGATGCGCATACACACAGATGAATAACAAAA [CACACA_site1628] | 10.2 ± 0.12 |
| GAAAAATATATTCTGGTGCATGAATAAAATCATAAA | 10 ± 0.29 |
| AATTGGATAAACCAATTGGATTATAATACGATATAT [CACACA_negctrl_site275] | 9.845 ± 0.021 |
| AAAATAAGAAAACAAATGCACACCATTTATATAGAT [CACACA_site1055] | 9.925 ± 0.092 |
| TATATAATAAGAAAATATGTGCGTAGTTCAGCAAAA [XGTACX_negctrl_site304] | 10.2 ± 0.18 |
| TATTCATCACTTTTTTGTACTTATGGATAAAATTTT [XGTACX_site3349] | 11.2 ± 0.44 |

| Sequence | gcPBM binding intensity (ln) |
| --- | --- |
| AAAGGATATATCCAGAGTACATATTCTGTGTAATAC [XGTACX_site1547] | 11.1 ± 0.64 |
| ATAATTGTTTCTTTCTCCTTTTTATTTCATTTTAAA [CACACA_negctrl_site964] | 9.865 ± 0.092 |
| CACAAAAAAAATTATACACACACACCCATATATATA [CACACA_site8255] | 10.1 ± 0.2 |
| TGTCTTATTTATATTACACACTATATGAAAAAATAT [CACACA_site6807] | 10 ± 0.19 |
| TAAATATAATCTAAATGTACATGACATAATTTTTTT [XGTACX_site2856] | 10.7 ± 0.49 |
| GTGTAATATGAAATGTGTACACACGCACACACAAAA [XGTACX_site6180] | 11.7 ± 1.1 |
| TAAAATATTTTTTGTAGTACCTTAATATTTTTGAAG [XGTACX_site3048] | 11.2 ± 0.69 |
| TATATATATTATAGATGTACTTTCATATATATGTTT [XGTACX_site8189] | 11 ± 0.69 |
| AGCCACCATATTTACACACACATCAAAATGTATTAA [CACACA_site1816] | 10.2 ± 0.17 |
| TTTCAAAAATGAGTTACACACACACCGATATATATA [CACACA_site5263] | 10.14 ± 0.099 |
| AATAAATACTAAATGGTGCAAAATTTTTTAACACTG | 9.96 ± 0.12 |
| ATGTATATTTTTAAAAGTACAGAATTTTCATATGAA [XGTACX_site5754] | 11.3 ± 0.93 |
| ATATACAATACAAAAACACACACAAAAAAAGAAAAG [CACACA_site8668] | 10.2 ± 0.16 |
| ATAGTATCTGGTAGCTGTACGAGTCGTAGAGTCTAA [XGTACX_site2539] | 11.2 ± 0.98 |
| TATTTATTTATGTACGCACACAGTTGATATTAATTC [CACACA_site2754] | 11.6 ± 0.96 |
| TATAATTATTTTTTCACACATATGTATTTATATATA [CACACA_site4205] | 9.975 ± 0.007 |
| ATTATTTAACATGTGGACACAAAAATTTAAGGGTTC [CACACA_negctrl_site1269] | 11.4 ± 0.83 |
| ATGATAATTATTAAGGGTACATAAAAATATATCTAT [XGTACX_site8969] | 11.3 ± 0.73 |
| AGATATATATATAGGTGTACTGGAATGAAATTGTTT [XGTACX_site8200] | 11.4 ± 0.49 |
| AATATATTAAATATTACACACATACATTTAGTGGAA [CACACA_site8609] | 9.875 ± 0.064 |
| AATATCAAAAAAAAAAAAAAAAAAAAAAAAAAAAAA [CACACA_negctrl_site288] | 9.48 ± 0.35 |
| TACTAAGAAAAGAACTGTACATAGAATATACCCAAG [XGTACX_site4757] | 10.9 ± 0.53 |

| Sequence | gcPBM binding intensity (ln) |
| --- | --- |
| ATATAATAAATGTAGGTGCATAAAAATATTTTGTTA [GTGCAC_site9780] | 10.12 ± 0.078 |
| TTAACCACTAAAAGTACACACATATATACCTATATA [CACACA_site6026] | 11.6 ± 0.97 |
| TTTTAATAATATGGATGTACATAAAAATAAATAAAT [XGTACX_site7937] | 11.3 ± 0.62 |
| CTTGGTAGTTTTTTCTTATAATCTAATTATTAATAA [CACACA_negctrl_site153] | 10.2 ± 0.21 |
| TTAATATATAATAAATTTTTTTTTTTTTTTTTTTTT [CACACA_negctrl_site892] | 10.6 ± 0.36 |
| ATATATTAATATGTGTGTACTTAACCATTCATATGT [XGTACX_site7395] | 11.1 ± 0.69 |
| TTAATATGAAAACTCTGTACCCAACCTTCTTATGGA [XGTACX_site2126] | 11.1 ± 0.71 |
| TATATAAATATATAATGTACGTTTTAAAAATAATAT [XGTACX_site3881] | 11.2 ± 0.83 |
| AAAACATAAATACATACACACATAATATATATTAAG [CACACA_site4239] | 9.92 ± 0.099 |
| TTTTTTTAAAATATGAGTACATAATATTGTAAAAAT [XGTACX_site6536] | 11.4 ± 0.9 |
| TAGTATTATTTTTTTTGTACATATAAATGTAAAATA [XGTACX_site5282] | 11 ± 0.71 |
| TTATTTAAAATGAAAAGTACATATTACTTTCTCACA [XGTACX_site5043] | 11.2 ± 0.82 |
| TCTTGTTTTAATTTTTATATTATTATTTAGATATAT [CACACA_negctrl_site921] | 9.7 ± 0.17 |
| ATACATATACACATTTGTACATATTCCTTTTTATCG [XGTACX_site1731] | 10.9 ± 0.41 |
| TACTAAATGATCATATGTACACATGTTTACTTTTTA [XGTACX_site1253] | 11.4 ± 0.96 |
| ATTATGATATATATATGTACATATATATAATATAAT [XGTACX_site259] | 11.2 ± 0.78 |
| TCTATGAATTAATATGCATGTAACGTATTTATACTT [TGCATGCA_site669] | 9.95 ± 0.071 |
| TGGATATATGTAAAAATTGCAAGAAAGATAAAAGGA [CACACA_negctrl_site64] | 10 ± 0.028 |
| TATAAAAGGAAACACACACACATATATATATATATA [CACACA_site939] | 10 ± 0.36 |
| AAAAAAAAAAAAAGTGCACACTTTTAATATAAATAT [CACACA_site3314] | 10.7 ± 0.5 |
| TTTTTTTTTTTCCTTACACACATATTTCATTTTATA [CACACA_site747] | 9.935 ± 0.021 |
| TTTTTATTTTTTAGTAGTACACACTTTTTGAACCTT [XGTACX_site1091] | 11.6 ± 0.97 |

| Sequence | gcPBM binding intensity (ln) |
| --- | --- |
| TTTTATATATATTATACACACAAGGAAAAAAAAAAA [CACACA_site3677] | 10.3 ± 0.36 |
| AAGTATCAAAAATAAAGTACATATTTTGTAGGCAGG [XGTACX_site1463] | 11.4 ± 0.71 |
| TTATAATATAAAAAATGTACATTAAAAAAAAAGATT [XGTACX_site8950] | 11.2 ± 0.8 |
| CAAAAAATATATTTTTGTACTTATGTTTTTATTTTG [XGTACX_site5230] | 11.1 ± 0.76 |
| TAGTATAATATGAACACACACACACCCACAAAAAAA [CACACA_site2009] | 10.4 ± 0.3 |
| AAGGGAAAAAAAAAAGCACACATACGTAAATATATA [CACACA_site7960] | 10.1 ± 0.15 |
| AAAAGATAAAATTATGCACACATACGAATAATTTTA [CACACA_site8497] | 10 ± 0.11 |
| TATTTCACACAGTATATATATATATATATATATATA [TGCATGCA_negctrl_site118] | 10.1 ± 0.61 |
| CACATAATGAAAAATACACACATGTATATTTATAAA [CACACA_site2736] | 10.065 ± 0.007 |
| ATCTGACAAAAGTGTACACATATATATATATATATA [CACACA_site4814] | 11.7 ± 1.2 |
| AAATGGGAAATTTCATGTACTCATTTACCCTTATTA [XGTACX_site4740] | 11.2 ± 0.64 |
| GTTAATTTTTGTATAGTGCAAAAATATAATAGTATG | 10.2 ± 0.2 |
| TGTTGGTATGTGAATGCATGCATATAAGTCTATCTG [TGCATGCA_site780] | 9.85 ± 0.042 |
| TTGAAGTATAATAAAGTGCAAAATTATAATGATCTT [GTGCAC_site9639] | 10 ± 0.071 |
| TATTTATAACAAAGGTTAAATTAAAACTAATCCACA [TGCATGCA_negctrl_site3] | 9.9 ± 0.18 |
| GCCAAAATCTAATTTACACACTTATTAAATAATTAC [CACACA_site6251] | 9.98 ± 0.071 |
| AATCCCCACTTGTCAAGTACATATATCATGGATGAA [XGTACX_site3486] | 10.9 ± 0.55 |
| TTTTTTTTCATTGGTTGTACAATATTTATAATTCAC [XGTACX_site7036] | 11.4 ± 0.65 |
| TTTTTTTTTTTTTTTTGTACTTATAAAAAATTTTTT [XGTACX_site1249] | 11.1 ± 0.88 |
| TACAGATATAAACACACACACATATATATATATATA [CACACA_site4846] | 10.1 ± 0.31 |
| GACATAGTCATATACTGTACTTTATATTATTGTGTA [XGTACX_site6636] | 11.3 ± 0.96 |
| ATGTAATATTTACAACGTACAAATTATAAACATATT [XGTACX_site603] | 10.8 ± 0.37 |
